Reference: the supplement of paper PMC4967469
A lower IC50 marks a more sensitive line; where the fit passes the top or lowest dose, that dose stands as a limit. AUC is the area under the same curve over the 256-fold range up to the top dose, as a fraction; it is 1 without any effect and falls as sensitivity rises. Where the top dose is marked as inferred, it was derived from the fitted curves, not read from the paper.

Each cell line was assayed with C=CC(=O)Nc1ccc(C(=O)c2sc(Nc3ccc(N4CCN(C)CC4)cc3OC)nc2N)cc1 [XMD15-27] (assay: Viability of human cancer cell lines after 72 h of drug (GDSC screen)). Settings: top dose 10.24 µM; top dose inferred.
Experimental: (§1)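 Human cancer cell lines in 384-well plates, medium with 10% serum, drug for 72 h over a 256-fold dose range (nine 2-fold or five 4-fold steps up to the top dose). Adherent lines were fixed and stained with the nucleic acid dye Syto60, suspension lines read with resazurin; signal relative to control wells, capped at 0 and 100%. One two-parameter sigmoid per drug and line, fitted in a mixed model over all curves with the slope shared within a line.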
769-P (kidney, adherent) showed an AUC of 0.972 and an IC50 of over 10.2 µM. Work on A204 (rhabdomyosarcoma, adherent) yielded an AUC of 0.952 and an IC50 of over 10.2 µM. BC-3 (B-cell lymphoma, suspension) gave an AUC of 0.98 and an IC50 of over 10.2 µM. For “BEN (non-small cell lung carcinoma, adherent)”, the AUC was 0.986 and the IC50 was over 10.2 µM. BFTC-909 (kidney, adherent) was tested, and the AUC was 0.988 and the IC50 was over 10.2 µM. BICR31 (head and neck, adherent) was tested, and the AUC was 0.988 and the IC50 was over 10.2 µM. In the case of CAL-148 (breast, suspension), the AUC is reported as 0.989 and the IC50 is reported as over 10.2 µM. In the case of CAMA-1 (breast, adherent), the AUC is reported as 0.979 and the IC50 is reported as over 10.2 µM. In the case of COLO-792 (melanoma, adherent), the AUC is reported as 0.95 and the IC50 is reported as over 10.2 µM. Work on COLO-829 (melanoma, adherent) yielded an AUC of 0.979 and an IC50 of over 10.2 µM. “COR-L105 (lung adenocarcinoma, adherent)” was tested, and the AUC was 0.982 and the IC50 was over 10.2 µM. Work on “COR-L303 (small cell lung carcinoma, suspension)” yielded an AUC of 0.982 and an IC50 of over 10.2 µM. Work on “COR-L311 (small cell lung carcinoma, suspension)” yielded an AUC of 0.874 and an IC50 of over 10.2 µM. With Caov-3 (ovary, adherent) the AUC was 0.991 and the IC50 was over 10.2 µM. With Daoy (medulloblastoma, adherent) the AUC was 0.988 and the IC50 was over 10.2 µM. Cell Line GCT (soft tissue, adherent) has an AUC of 0.989 and an IC50 of over 10.2 µM. GP5d (large intestine, adherent) gave an AUC of 0.991 and an IC50 of over 10.2 µM. Cell Line H2803 (mesothelioma, adherent) has an AUC of 0.985 and an IC50 of over 10.2 µM. For H2804 (mesothelioma, adherent), the AUC was 0.981 and the IC50 was over 10.2 µM. Cell Line H2818 (mesothelioma, adherent) has an AUC of 0.982 and an IC50 of over 10.2 µM. For HCC70 (breast, adherent), the AUC was 0.988 and the IC50 was over 10.2 µM. Work on HCC1599 (breast, suspension) yielded an AUC of 0.971 and an IC50 of over 10.2 µM. “HCC-33 (small cell lung carcinoma, adherent)” showed an AUC of 0.988 and an IC50 of over 10.2 µM. Cell Line HCE-4 (oesophagus, adherent) has an AUC of 0.992 and an IC50 of over 10.2 µM. With “HEL (acute myeloid leukaemia, semi-adherent)” the AUC was 0.981 and the IC50 was over 10.2 µM. With HO-1-N-1 (head and neck, adherent) the AUC was 0.988 and the IC50 was over 10.2 µM. HPAC (pancreas, adherent) was tested, and the AUC was 0.962 and the IC50 was over 10.2 µM. HPAF-II (pancreas, adherent) gave an AUC of 0.98 and an IC50 of over 10.2 µM. With HSC-3 (head and neck, adherent) the AUC was 0.985 and the IC50 was over 10.2 µM. HTC-C3 (thyroid, adherent) gave an AUC of 0.966 and an IC50 of over 10.2 µM. HeLa (cervix, adherent) showed an AUC of 0.989 and an IC50 of over 10.2 µM. Hs940-T (melanoma, adherent) gave an AUC of 0.976 and an IC50 of over 10.2 µM. Work on Hs-445 (Hodgkin lymphoma, suspension) yielded an AUC of 0.979 and an IC50 of over 10.2 µM. For IM-95 (stomach, adherent), the AUC was 0.986 and the IC50 was over 10.2 µM. IST-MES1 (mesothelioma, adherent) showed an AUC of 0.988 and an IC50 of over 10.2 µM. In the case of J82 (bladder, adherent), the AUC is reported as 0.988 and the IC50 is reported as over 10.2 µM. For KALS-1 (glioma, adherent), the AUC was 0.97 and the IC50 was over 10.2 µM. For KOSC-2 (head and neck, adherent), the AUC was 0.985 and the IC50 was over 10.2 µM. Work on KP-4 (pancreas, adherent) yielded an AUC of 0.988 and an IC50 of over 10.2 µM. KP-N-YS (neuroblastoma, adherent) showed an AUC of 0.901 and an IC50 of over 10.2 µM. KYSE-180 (oesophagus, adherent) gave an AUC of 0.986 and an IC50 of over 10.2 µM. In the case of KYSE-270 (oesophagus, adherent), the AUC is reported as 0.985 and the IC50 is reported as over 10.2 µM. Cell Line LC-2-ad (lung adenocarcinoma, adherent) has an AUC of 0.982 and an IC50 of over 10.2 µM. For “LU-99A (large cell lung carcinoma, adherent)”, the AUC was 0.986 and the IC50 was over 10.2 µM. ML-1 (thyroid, adherent) was tested, and the AUC was 0.955 and the IC50 was over 10.2 µM. Work on “NCI-H196 (small cell lung carcinoma, adherent)” yielded an AUC of 0.976 and an IC50 of over 10.2 µM. For “NCI-H748 (small cell lung carcinoma, suspension)”, the AUC was 0.975 and the IC50 was over 10.2 µM. In the case of “NCI-H1299 (large cell lung carcinoma, adherent)”, the AUC is reported as 0.972 and the IC50 is reported as over 10.2 µM. With “NCI-H1573 (lung adenocarcinoma, adherent)” the AUC was 0.99 and the IC50 was over 10.2 µM. Work on “NCI-H1793 (lung adenocarcinoma, adherent)” yielded an AUC of 0.982 and an IC50 of over 10.2 µM. “NCI-H1915 (large cell lung carcinoma, adherent)” gave an AUC of 0.978 and an IC50 of over 10.2 µM. With “NCI-H2170 (lung squamous cell carcinoma, adherent)” the AUC was 0.987 and the IC50 was over 10.2 µM. “NCI-H2171 (small cell lung carcinoma, suspension)” gave an AUC of 0.986 and an IC50 of over 10.2 µM. For “NCI-H2196 (small cell lung carcinoma, adherent)”, the AUC was 0.987 and the IC50 was over 10.2 µM. “NCI-H2228 (lung adenocarcinoma, adherent)” gave an AUC of 0.891 and an IC50 of over 10.2 µM. For PCI-38 (head and neck, adherent), the AUC was 0.985 and the IC50 was over 10.2 µM. For PL18 (pancreas, adherent), the AUC was 0.986 and the IC50 was over 10.2 µM. “PL-21 (acute myeloid leukaemia, suspension)” gave an AUC of 0.98 and an IC50 of over 10.2 µM. RD (rhabdomyosarcoma, adherent) showed an AUC of 0.985 and an IC50 of over 10.2 µM. Cell Line RT-112 (bladder, adherent) has an AUC of 0.983 and an IC50 of over 10.2 µM. With SCC-3 (B-cell lymphoma, suspension) the AUC was 0.912 and the IC50 was 7.27 µM. With “SIG-M5 (acute myeloid leukaemia, suspension)” the AUC was 0.993 and the IC50 was over 10.2 µM. With SN12C (kidney, adherent) the AUC was 0.986 and the IC50 was over 10.2 µM. With SNU-175 (large intestine, suspension) the AUC was 0.977 and the IC50 was over 10.2 µM. SNU-398 (liver, adherent) gave an AUC of 0.97 and an IC50 of over 10.2 µM. SNU-475 (liver, adherent) was tested, and the AUC was 0.98 and the IC50 was over 10.2 µM. For SNU-1040 (large intestine, adherent), the AUC was 0.968 and the IC50 was over 10.2 µM. Cell Line “SU-DHL-1 (anaplastic large cell lymphoma, suspension)” has an AUC of 0.915 and an IC50 of 7.34 µM. Work on SW156 (kidney, adherent) yielded an AUC of 0.974 and an IC50 of over 10.2 µM. SW837 (large intestine, adherent) gave an AUC of 0.983 and an IC50 of over 10.2 µM. In the case of SW872 (soft tissue, adherent), the AUC is reported as 0.989 and the IC50 is reported as over 10.2 µM. Cell Line SW1088 (glioma, adherent) has an AUC of 0.974 and an IC50 of over 10.2 µM. SW1116 (large intestine, adherent) was tested, and the AUC was 0.985 and the IC50 was over 10.2 µM. SW1463 (large intestine, adherent) was tested, and the AUC was 0.978 and the IC50 was over 10.2 µM. T-24 (bladder, adherent) showed an AUC of 0.969 and an IC50 of over 10.2 µM. Work on “TALL-1 (T-cell lymphoblastic leukaemia, suspension)” yielded an AUC of 0.99 and an IC50 of over 10.2 µM. In the case of TE-441-T (rhabdomyosarcoma, adherent), the AUC is reported as 0.989 and the IC50 is reported as over 10.2 µM. TGBC24TKB (biliary tract, adherent) was tested, and the AUC was 0.99 and the IC50 was over 10.2 µM. U251 (glioma, adherent) showed an AUC of 0.985 and an IC50 of over 10.2 µM. Work on UACC-812 (breast, adherent) yielded an AUC of 0.991 and an IC50 of over 10.2 µM. In the case of YMB-1-E (breast, adherent), the AUC is reported as 0.977 and the IC50 is reported as over 10.2 µM.

What follows are cell lines tested with O=C1NC(=O)/C(=C\c2ccc3nccnc3c2)S1 [AS605240] in the same assay as above. Settings: top dose inferred.
Experimental: as §1
“8-MG-BA (glioma, adherent, top dose 20 µM)” gave an AUC of 0.866 and an IC50 of 15.9 µM. Work on “22RV1 (prostate, adherent, top dose 20 µM)” yielded an AUC of 0.837 and an IC50 of 18.3 µM. “42-MG-BA (glioma, adherent, top dose 20 µM)” gave an AUC of 0.95 and an IC50 of over 20 µM. For “201T (lung adenocarcinoma, adherent, top dose 20 µM)”, the AUC was 0.918 and the IC50 was over 20 µM. In the case of “451Lu (melanoma, adherent, top dose 20 µM)”, the AUC is reported as 0.481 and the IC50 is reported as 1.12 µM. For “639-V (bladder, adherent, top dose 20 µM)”, the AUC was 0.964 and the IC50 was over 20 µM. Cell Line “647-V (bladder, adherent, top dose 20 µM)” has an AUC of 0.855 and an IC50 of 16.1 µM. For “697 (lymphoblastic leukaemia, suspension, top dose 20 µM)”, the AUC was 0.415 and the IC50 was 0.77 µM. In the case of “769-P (kidney, adherent, top dose 20 µM)”, the AUC is reported as 0.581 and the IC50 is reported as 2.12 µM. With “786-0 (kidney, adherent, top dose 20 µM)” the AUC was 0.752 and the IC50 was 6.17 µM. “5637 (bladder, adherent, top dose 20 µM)” was tested, and the AUC was 0.732 and the IC50 was 5.29 µM. With “8305C (thyroid, adherent, top dose 20 µM)” the AUC was 0.962 and the IC50 was over 20 µM. With “8505C (thyroid, adherent, top dose 20 µM)” the AUC was 0.825 and the IC50 was 13 µM. “23132-87 (stomach, adherent, top dose 20 µM)” showed an AUC of 0.868 and an IC50 of 19.4 µM. With “A3-KAW (B-cell lymphoma, suspension, top dose 20 µM)” the AUC was 0.615 and the IC50 was 2.41 µM.
